To fix the notation:
B1: UGUCGCU (DNA:RNA)
RNA: GGGAGACCGGAAUUCAGAUUGUCCUGUCGCUUUAAAUCCCGUCGUAGCCACCA
DNA 1: CAATCTGAATTCCGGTCTCCC
DNA 2: TGGTGGCTACGACGGGATT
B2: UCGUUUC (DNA:RNA)
RNA: B1 RNA with G26C, U27G, C28U, G29U, C30U, U31C
DNA 1: CAATCTGAATTCCGGTCTCCC
DNA 2: TGGTGGCTACGACGGGATT
B3: AAAAUGG (DNA:RNA)
RNA: GGGAGACCGGAAUUCAGAUUGUCCAAAAUGGUUAAAUCCCGUCGUAGCCACCA
DNA 1: CAATCTGAATTCCGGTCTCCC
DNA 2: TGGTGGCTACGACGGGATT
B4: ACUGCCU (DNA:RNA)
RNA: B1 RNA with U25A, G26C, C28G, G29C
DNA 1: CAATCTGAATTCCGGTCTCCC
DNA 2: TGGTGGCTACGACGGGATT
B5: GGACCGA (DNA:RNA)
RNA: B3 RNA with A25G, A26G, A28C, U29C, G31A
DNA 1: CAATCTGAATTCCGGTCTCCC
DNA 2: TGGTGGCTACGACGGGATT
B6: AGUCCUA (DNA:RNA)
RNA: B1 RNA with U25A, G29C, C30U, U31A
DNA 1: CAATCTGAATTCCGGTCTCCC
DNA 2: TGGTGGCTACGACGGGATT
B7: UUGUCUA (DNA:RNA)
RNA: B1 RNA with G26U, U27G, C28U, G29C, C30U, U31A
DNA 1: CAATCTGAATTCCGGTCTCCC
DNA 2: TGGTGGCTACGACGGGATT
B8: UUAACUG (DNA:RNA)
RNA: B3 RNA with A25U, A26U, U29C, G30U
DNA 1: CAATCTGAATTCCGGTCTCCC
DNA 2: TGGTGGCTACGACGGGATT
B9: AUCGAAC (DNA:RNA)
RNA: B3 RNA with A26U, A27C, A28G, U29A, G30A, G31C
DNA 1: CAATCTGAATTCCGGTCTCCC
DNA 2: TGGTGGCTACGACGGGATT
B10: CUUACGU (DNA:RNA)
RNA: B3 RNA with A25C, A26U, A27U, U29C, G31U
DNA 1: CAATCTGAATTCCGGTCTCCC
DNA 2: TGGTGGCTACGACGGGATT
B11: UCUCAUA (DNA:RNA)
RNA: B1 RNA with G26C, G29A, C30U, U31A
DNA 1: CAATCTGAATTCCGGTCTCCC
DNA 2: TGGTGGCTACGACGGGATT
B12: UCGUUGC (DNA:RNA)
RNA: B3 RNA with A25U, A26C, A27G, A28U, G31C
DNA 1: CAATCTGAATTCCGGTCTCCC
DNA 2: TGGTGGCTACGACGGGATT
B13: AACCAGU (DNA:RNA)
RNA: B3 RNA with A27C, A28C, U29A, G31U
DNA 1: CAATCTGAATTCCGGTCTCCC
DNA 2: TGGTGGCTACGACGGGATT
B14: UGGCCUU (DNA:RNA)
RNA: B1 RNA with U27G, G29C, C30U
DNA 1: CAATCTGAATTCCGGTCTCCC
DNA 2: TGGTGGCTACGACGGGATT
B15: AUGGCCA (DNA:RNA)
RNA: B3 RNA with A26U, A27G, A28G, U29C, G30C, G31A
DNA 1: CAATCTGAATTCCGGTCTCCC
DNA 2: TGGTGGCTACGACGGGATT
B16: UCGCCUG (DNA:RNA)
RNA: B1 RNA with G26C, U27G, G29C, C30U, U31G
DNA 1: CAATCTGAATTCCGGTCTCCC
DNA 2: TGGTGGCTACGACGGGATT
B17: UUCCCGG (DNA:RNA)
RNA: B3 RNA with A25U, A26U, A27C, A28C, U29C
DNA 1: CAATCTGAATTCCGGTCTCCC
DNA 2: TGGTGGCTACGACGGGATT
B18: GGUUCGG (DNA:RNA)
RNA: B3 RNA with A25G, A26G, A27U, A28U, U29C
DNA 1: CAATCTGAATTCCGGTCTCCC
DNA 2: TGGTGGCTACGACGGGATT
B19: CAGAUGC (DNA:RNA)
RNA: B3 RNA with A25C, A27G, G31C
DNA 1: CAATCTGAATTCCGGTCTCCC
DNA 2: TGGTGGCTACGACGGGATT
B20: ACCAAGG (DNA:RNA)
RNA: B3 RNA with A26C, A27C, U29A
DNA 1: CAATCTGAATTCCGGTCTCCC
DNA 2: TGGTGGCTACGACGGGATT
B21: AUGGGUG (DNA:RNA)
RNA: B3 RNA with A26U, A27G, A28G, U29G, G30U
DNA 1: CAATCTGAATTCCGGTCTCCC
DNA 2: TGGTGGCTACGACGGGATT
B22: ACGCAAC (DNA:RNA)
RNA: B3 RNA with A26C, A27G, A28C, U29A, G30A, G31C
DNA 1: CAATCTGAATTCCGGTCTCCC
DNA 2: TGGTGGCTACGACGGGATT
B23: UCUUUGA (DNA:RNA)
RNA: B3 RNA with A25U, A26C, A27U, A28U, G31A
DNA 1: CAATCTGAATTCCGGTCTCCC
DNA 2: TGGTGGCTACGACGGGATT
B24: CUCGCCG (DNA:RNA)
RNA: B3 RNA with A25C, A26U, A27C, A28G, U29C, G30C
DNA 1: CAATCTGAATTCCGGTCTCCC
DNA 2: TGGTGGCTACGACGGGATT
B25: GACUAAA (DNA:RNA)
RNA: B3 RNA with A25G, A27C, A28U, U29A, G30A, G31A
DNA 1: CAATCTGAATTCCGGTCTCCC
DNA 2: TGGTGGCTACGACGGGATT
B26: ACACUCG (DNA:RNA)
RNA: B3 RNA with A26C, A28C, G30C
DNA 1: CAATCTGAATTCCGGTCTCCC
DNA 2: TGGTGGCTACGACGGGATT
B27: GAAUAAG (DNA:RNA)
RNA: B3 RNA with A25G, A28U, U29A, G30A
DNA 1: CAATCTGAATTCCGGTCTCCC
DNA 2: TGGTGGCTACGACGGGATT
B28: UAAGAAG (DNA:RNA)
RNA: B3 RNA with A25U, A28G, U29A, G30A
DNA 1: CAATCTGAATTCCGGTCTCCC
DNA 2: TGGTGGCTACGACGGGATT
B29: CCCCUGU (DNA:RNA)
RNA: B3 RNA with A25C, A26C, A27C, A28C, G31U
DNA 1: CAATCTGAATTCCGGTCTCCC
DNA 2: TGGTGGCTACGACGGGATT
B30: CGCGGCU (DNA:RNA)
RNA: B1 RNA with U25C, U27C, C28G
DNA 1: CAATCTGAATTCCGGTCTCCC
DNA 2: TGGTGGCTACGACGGGATT
B31: CCUCGUA (DNA:RNA)
RNA: B1 RNA with U25C, G26C, C30U, U31A
DNA 1: CAATCTGAATTCCGGTCTCCC
DNA 2: TGGTGGCTACGACGGGATT

Substitutions are numbered along the chain they refer to; changes in the protein carry UniProt numbers. The list shows a part of the results.

The values below come from article PMC9911399, “Two distinct binding modes provide the RNA-binding protein RbFox with extraordinary sequence specificity”.

For the assay, the target named is T1, RBFOX1 RRM RbFoxmut (Fox-RRM*) (Homo sapiens, UniProt Q9NWB1 109-208, R118D;E147R;N151S;E152T).
T1 sequence: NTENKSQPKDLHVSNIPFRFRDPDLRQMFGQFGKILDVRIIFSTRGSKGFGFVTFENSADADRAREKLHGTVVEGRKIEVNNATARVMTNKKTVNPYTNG
The experiment in a line: EMSA; HiTS-Eq, 1 nM pool, 10 min; buffer printed only for the single-RNA assays: 10 mM Tris pH 7.5, 150 mM NaCl, 3.4 mM EDTA, 0.001% NP-40, 30 C. To be noted: tags: His6 N-terminal (pET28a); label: 5' 32P. In short, it runs like this: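 Purified RbFox RRM, wild type or mutant, was incubated for 10 min in 50 µL with 1 nM of a 5′-radiolabelled RNA pool carrying 7 randomized nucleotides, whose flanks were annealed to DNA oligonucleotides, over a series of increasing protein concentrations. Unbound RNA was resolved on 8% native PAGE, cut out, reverse-transcribed, barcoded by PCR and sequenced on an Illumina HiSeq 2500. Relative association constants were derived from changes in read counts for each RNA species versus the control reaction and normalised to the cognate motif.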
Consider B1, for which the binding signal was 0.0827 KA relative to UGCAUGU.
The same measure for B2: 0.127 KA relative to UGCAUGU; for B3: 0.0725 KA relative to UGCAUGU; for B4: 0.098 KA relative to UGCAUGU.
Consider B5, for which the binding signal is 0.162 KA relative to UGCAUGU.
The value for B6 was 0.0843 KA relative to UGCAUGU; that for B7 was 0.122 KA relative to UGCAUGU.
As to B8, the binding signal is 0.0957 KA relative to UGCAUGU.
The value for B9 was 0.0889 KA relative to UGCAUGU.
The same measure for B10: 0.112 KA relative to UGCAUGU; for B11: 0.109 KA relative to UGCAUGU; for B12: 0.126 KA relative to UGCAUGU.
The value for B13 was 0.0873 KA relative to UGCAUGU; that for B14 was 0.0973 KA relative to UGCAUGU; that for B15 was 0.106 KA relative to UGCAUGU.
For the molecule B16, the binding signal is 0.19 KA relative to UGCAUGU.
The same measure for B17: 0.0598 KA relative to UGCAUGU; for B18: 0.126 KA relative to UGCAUGU.
Consider B19, for which the binding signal was 0.111 KA relative to UGCAUGU.
The same measure for B20: 0.0823 KA relative to UGCAUGU; for B21: 0.263 KA relative to UGCAUGU; for B22: 0.0768 KA relative to UGCAUGU.
With B23, the binding signal is 0.0898 KA relative to UGCAUGU.
The value for B24 was 0.0983 KA relative to UGCAUGU; that for B25 was 0.0844 KA relative to UGCAUGU; that for B26 was 0.0762 KA relative to UGCAUGU.
For B27, the binding signal was 0.134 KA relative to UGCAUGU.
The same measure for B28: 0.0935 KA relative to UGCAUGU; for B29: 0.0903 KA relative to UGCAUGU.
The value for B30 was 0.0934 KA relative to UGCAUGU; that for B31 was 0.142 KA relative to UGCAUGU.
